Read counts are not given, so values of variants with three or more changes are uncertain.

To fix the notation:
B1: OR4K15 (parent)
chain: GUUAACGGUCAUAGGCCAUGGAAACUAGGAGCACCAUUUCGCUGCCAGUGAAGAAAUGAACAAAGAAAAUCUGGGCCAGGCAGGCAUCAAAAGAAAUAGUCUUGCGCUCAACCAGAAAGUCUGUAAUCAUUUUAAGGGUA

This data set covers variants of B1. Put plainly: self-cleavage, relative activity (ratio to wild type); higher = more cleavage; in vitro, sequencing; the parent is a self-cleaving ribozyme.
On to A18U A51U A69G, for which the self-cleavage was determined as 0.79.
For A18G A47G A52G C76A A98G U131C, the self-cleavage was 0.08.
Then A18U G75C A78U A116G, with 0.05; and A18U A22G G41A, with 1.13; and A18G U97C U127C, with 0.34.
With A18G A89C A117G, the self-cleavage amounted to 1.39.
Take A18G U87C U103C A126C: the self-cleavage came to 0.27.
For A18G A114G U130C, the self-cleavage is 0.22.
For A18G A33G U87A U120C, the self-cleavage was 0.59.
As for A18G G83A U122C, the figure is 1.37; as for A18G A27G U120C U131C, 0.56; as for U19C A33G U122C, 0.49.
With A18U A60G G75A U127C, the self-cleavage was 0.01.
As for A18U A51U C88A, the figure is 1.61; as for U19A G41A U43A A59G U102C A116G, 0.53.
As to A18U U19C U39C, the self-cleavage turned out to be 1.74.
As for U19A A33G A116G, the figure is 0.38; as for A18G A33U A63G A118G U124C, 0.76; as for A18U A52U A62G, 1.56.
For the variant A18U A56G A78G, the self-cleavage amounted to 0.24.
With U19A A51U A60G A66G U108C U122C, the self-cleavage was 0.04.
Then A18G A56G U87C A118G, with 0.59; and A18C A67G U102C A116G, with 0.62.
Take A18U A54G U103C: the self-cleavage was 0.45.
A18U A24C A78U A94G: the self-cleavage is 0.34.
Then A18U A51U A92G A114G U120G, with 0.07; and A18G A55G A92G A116G A126G, with 1.09.
Turning to U19A U39A A69G, the self-cleavage amounted to 1.7.
Take A18G A52G A54G A91U U100C U127C: the self-cleavage is 0.82.
With A18G U37A A94C U132C, the self-cleavage came to 1.46.
With A18G A24C A67G A117G, the self-cleavage turned out to be 1.78.
Consider U19A A23G U37C A64G A126G A129U, for which the self-cleavage turned out to be 0.57.
A18U A24G U37C U49C A54G: the self-cleavage was 0.9.
On to U19C A24G A51U A54G U100C, for which the self-cleavage worked out at 1.21.
For the variant U19C A22G A86U A117G A129C, the self-cleavage is 0.72.
For U19A U108C A118G U124C, the self-cleavage worked out at 0.
With U19C A22G U43C A59G A69G A82C, the self-cleavage was found to be 0.27.
On to A18U U37C A67G A96G A118G U122C U131C, for which the self-cleavage was determined as 0.28.
Then A18U A23G A52G, with 0.96; and A18C G83A U87C A94G, with 1.3; and A18G U43C A118U, with 0.7.
Regarding U19A A56G A68G A69G A110G A116U, the self-cleavage was found to be 0.01.
Take A18G A52U U127A: the self-cleavage stood at 2.71.
A18U A47G A54U A62G A92G A95G A125G: the self-cleavage came out at 0.42.
Then U19C A27U A64G U97A, with 1.19.
Regarding A18G U38C U132A, the self-cleavage is 0.51.
For A18U A86G A92U, the self-cleavage was determined as 0.86.
With A18U G50U A67G, the self-cleavage came out at 1.14.
Then A18C G80A A126G, with 0.15.
Then A18U A51G A60G G80C A95G, with 0.08.
As for A18G A24G C46U A78G A96G U131C, the figure is 0.26; as for A18U U19C U100A U130C, 0.23; as for A18G A92G U102C A117G A118U, 1.8.
Regarding A18G A55G U87A, the self-cleavage was 0.2.
As for A18G U19C A30G A64G A68G, the self-cleavage was determined as 0.08.
A18U G41A A59U U97C: the self-cleavage is 0.9.
With A18U A67C A68U, the self-cleavage is 1.86.
In the case of A18U A116G U120C U131C, the self-cleavage came to 0.09.
On to A18U U19C A27G U49C A82U A98G U108C A140G, for which the self-cleavage amounted to 0.01.
Consider U19A A111G A116G A126G, for which the self-cleavage was 0.
As for U19A U102C U122C A126G U131C, the self-cleavage was 0.5.
Then A18U A22G A56G U122C, with 1.19.
Then A18U C45U A60G, with 0.48; and U19A A54U A59G A66U A92G U103C, with 0.35; and A18U A33U A52G A55G A56G C109A A117G, with 0.31.
For the variant U19A U37G U39C A60G A82G A90G, the self-cleavage was 0.27.
For the variant A18G A60G A96G U127C, the self-cleavage stood at 0.46.
Regarding A18G G29U A54G C88U A89U A94G, the self-cleavage was 1.26.
With A18U U38C A67G A86U, the self-cleavage came to 1.58.
Then A18G A66U A78U U130C, with 0.33; and U19A A36C A59C U87C, with 1.42; and A18G A36G A98U A114U A116G, with 0.02.
As for U19A A24G A33U A60G A68C, the figure is 0.2.
A18G A33G A52G A62U U102G U122C U132C: the self-cleavage turned out to be 0.05.
Regarding U19C A27U U38C U43C A60G A64G A96G, the self-cleavage worked out at 0.42.
With A18U U127C A129G U130A, the self-cleavage came out at 0.71.
Turning to A18C A62G C77U A82G U87C A114G A117G, the self-cleavage is 0.3.
On to A18G A86G A117G, for which the self-cleavage was 2.03.
As to U19A U37C A51U, the self-cleavage was 0.81.
Then A18U U19C A30G A69G A78U U103C U131C, with 0.1; and A18U U26C A86G U108C A117G U130C U139A A140G, with 0; and U19A U43C A64G C105U, with 0.05.
Then A18G U43C U57C A66U U102C, with 1.87.
